This is an account of results in the supplement of paper PMC11876631.

± gives the standard deviation of the averaged measurements. Laboratory Escherichia coli strains with one amino-acid change in an essential protein, pooled on minimal glucose agar with carbenicillin or gentamicin at twice the control MIC (plus kanamycin and chloramphenicol for the plasmids), 48 h. Fold change of barcode share against drug-free plates; higher = less susceptible. Active = above 20 in both replicates (the paper's putatively resistant). '<' = one read or none on drug, '>' = one read or none on a drug-free plate. Shares are relative, so most strains fall below 1 when a few take over. Listed are strains with at least 15 reads on both drug-free plates, and hits; most hits rest on fewer reference reads. Replicate rank correlation about 0.5. Edits are read from barcodes.

B1: glnA; numbered along this chain (parent)
chain: MSAEHVLTMLNEHEVKFVDLRFTDTKGKEQHVTIPAHQVNAEFFEEGKMFDGSSIGGWKGINESDMVLMPDASTAVIDPFFADSTLIIRCDILEPGTLQGYDRDPRSIAKRAEDYLRSTGIADTVLFGPEPEFFLFDDIRFGSSISGSHVAIDDIEGAWNSSTQYEGGNKGHRPAVKGGYFPVPPVDSAQDIRSEMCLVMEQMGLVVEAHHHEVATAGQNEVATRFNTMTKKADEIQIYKYVVHNVAHRFGKTATFMPKPMFGDNGSGMHCHMSLSKNGVNLFAGDKYAGLSEQALYYIGGVIKHAKAINALANPTTNSYKRLVPGYEAPVMLAYSARNRSASIRIPVVSSPKARRIEVRFPDPAANPYLCFAALLMAGLDGIKNKIHPGEAMDKNLYDLPPEEAKEIPQVAGSLEEALNELDLDREFLKAGGVFTDEAIDAYIALRREEDDRVRMTPHPVEFELYYSV

Variants of B1 are the subject of this series. Kind of series: barcode share on antibiotic plates over drug-free plates; higher = less susceptible. Conditions: with Escherichia coli (laboratory strain). The method, then: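 A pool of E. coli strains, each edited to carry one amino-acid change in an essential protein, was grown for 48 h on minimal glucose agar with or without antibiotic; strain barcodes were sequenced; mean of two replicates.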

The mark [1] stands for this setting: antibiotic: carbenicillin, 2× MIC (3.1 µg/mL).
Where [2] appears, read: antibiotic: gentamicin, 2× MIC (MIC 0.45 µg/mL).

For MSAEHVLTMLNEHEVKFVDLRFTDTKGKEQHVTIPAHQVNAEFFEEGKMFDGSSIGGWKGINESDMVLMPDASTAVIDPFFADSTLIIRCDILEPGTLQGYDRDPRSIAKRAEDYLRSTGIADTVLFGPEPEFFLFDDIRFGSSISGSHVAIDDIEGAWNSSTQYEGGNKGHRPAVKGGYFPVPPVDSAQDIRSEMCLVMEQMGLVVEAHHHEVATAGQNEVATRFNTMTKKADEIQIYKYVVHNVAHRFGKTATFMPKPMFGDNGSGMHCHMSLSKNGVNLFAGDKYAGLSEQALYYIGGVIKHAKAINALANPTTNSYKRLVPGYEAPVPLAYSARNRSASIRIPVVSSPKARRIEVRFPDPAANPYLCFAALLMAGLDGIKNKIHPGEAMDKNLYDLPPEEAKEIPQVAGSLEEALNELDLDREFLKAGGVFTDEAIDAYIALRREEDDRVRMTPHPVEFELYYSV [M332P], the “fold change of barcode share” value is, setting by setting: under setting [1], 0.49 ± 0.014; under setting [2], 0.118 ± 0.16.

Take MSAEHVLTMLNEHEVKFVDLRFTDTKGKEQHVTIPAHQVNAEFFEEGKMFDGSSIGGWKGINESDMVLMPDASTAVIDPFFADSTLIIRCDILEPGTLQGYDRDPRSIAKRAEDYLRSTGIADTVLFGPEPEFFLFDDIRFGSSISGSHVAIDDIEGAWNSSTQYEGGNKGHRPAVKGGYFPVPPVDSAQDIRSEMCLVMEQMGLVVEAHHHEVATAGQNEVATRFNTMTKKADEIQIYKYVVHNVAHRFGKTATFMPKPMFGDNGSGMHCHMSLSKNGVNLFAGDKYAGLSEQALYYIGGVIKHAKAINALANPTTNSYKRLVPGYEAPVQLAYSARNRSASIRIPVVSSPKARRIEVRFPDPAANPYLCFAALLMAGLDGIKNKIHPGEAMDKNLYDLPPEEAKEIPQVAGSLEEALNELDLDREFLKAGGVFTDEAIDAYIALRREEDDRVRMTPHPVEFELYYSV [M332Q]: the “fold change of barcode share” value under setting [1] came to 0.3 ± 0.012 and the “fold change of barcode share” value under setting [2] worked out at 0.00483 ± 0.0021.

Consider MSAEHVLTMLNEHEVKFVDLRFTDTKGKEQHVTIPAHQVNAEFFEEGKMFDGSSIGGWKGINESDMVLMPDASTAVIDPFFADSTLIIRCDILEPGTLQGYDRDPRSIAKRAEDYLRSTGIADTVLFGPEPEFFLFDDIRFGSSISGSHVAIDDIEGAWNSSTQYEGGNKGHRPAVKGGYFPVPPVDSAQDIRSEMCLVMEQMGLVVEAHHHEVATAGQNEVATRFNTMTKKADEIQIYKYVVHNVAHRFGKTATFMPKPMFGDNGSGMHCHMSLSKNGVNLFAGDKYAGLSEQALYYIGGVIKHAKAINALANPTTNSYKRLVPGYEAPVMLAYSARNRSASIRIPVVSSPKARRIEVRFPDPAANPYLCFAALLQAGLDGIKNKIHPGEAMDKNLYDLPPEEAKEIPQVAGSLEEALNELDLDREFLKAGGVFTDEAIDAYIALRREEDDRVRMTPHPVEFELYYSV [M377Q], for which the “fold change of barcode share” value was 0.285 ± 0.084 under setting [1] and < 0.00828 under setting [2].

For MSAEHVLTMLNEHEVKFVDLRFTDTKGKEQHVTIPAHQVNAEFFEEGKMFDGSSIGGWKGINESDMVLMPDASTAVIDPFFADSTLQIRCDILEPGTLQGYDRDPRSIAKRAEDYLRSTGIADTVLFGPEPEFFLFDDIRFGSSISGSHVAIDDIEGAWNSSTQYEGGNKGHRPAVKGGYFPVPPVDSAQDIRSEMCLVMEQMGLVVEAHHHEVATAGQNEVATRFNTMTKKADEIQIYKYVVHNVAHRFGKTATFMPKPMFGDNGSGMHCHMSLSKNGVNLFAGDKYAGLSEQALYYIGGVIKHAKAINALANPTTNSYKRLVPGYEAPVMLAYSARNRSASIRIPVVSSPKARRIEVRFPDPAANPYLCFAALLMAGLDGIKNKIHPGEAMDKNLYDLPPEEAKEIPQVAGSLEEALNELDLDREFLKAGGVFTDEAIDAYIALRREEDDRVRMTPHPVEFELYYSV [I87Q], the “fold change of barcode share” value is, setting by setting: under setting [1], 0.512 ± 0.057; under setting [2], 0.00943 ± 0.0036.
